Out of some 110,000 compounds screened, about 230 (0.21%) showed an effect of 50% or more. Some of the results follow.
Biological target: DPAP1 (Plasmodium falciparum, UniProt Q8IIJ9)
Assay: primary screen, percent inhibition; read by cleavage of a fluorogenic dipeptide substrate; higher = more effect of the substance
Design: species or system P. falciparum D10 trophozoite lysates; single well
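Also: 30 min substrate incubation versus DMSO and 10 µM JCP410 controls.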

Sequence of DPAP1 (Q8IIJ9 whole entry, looked up): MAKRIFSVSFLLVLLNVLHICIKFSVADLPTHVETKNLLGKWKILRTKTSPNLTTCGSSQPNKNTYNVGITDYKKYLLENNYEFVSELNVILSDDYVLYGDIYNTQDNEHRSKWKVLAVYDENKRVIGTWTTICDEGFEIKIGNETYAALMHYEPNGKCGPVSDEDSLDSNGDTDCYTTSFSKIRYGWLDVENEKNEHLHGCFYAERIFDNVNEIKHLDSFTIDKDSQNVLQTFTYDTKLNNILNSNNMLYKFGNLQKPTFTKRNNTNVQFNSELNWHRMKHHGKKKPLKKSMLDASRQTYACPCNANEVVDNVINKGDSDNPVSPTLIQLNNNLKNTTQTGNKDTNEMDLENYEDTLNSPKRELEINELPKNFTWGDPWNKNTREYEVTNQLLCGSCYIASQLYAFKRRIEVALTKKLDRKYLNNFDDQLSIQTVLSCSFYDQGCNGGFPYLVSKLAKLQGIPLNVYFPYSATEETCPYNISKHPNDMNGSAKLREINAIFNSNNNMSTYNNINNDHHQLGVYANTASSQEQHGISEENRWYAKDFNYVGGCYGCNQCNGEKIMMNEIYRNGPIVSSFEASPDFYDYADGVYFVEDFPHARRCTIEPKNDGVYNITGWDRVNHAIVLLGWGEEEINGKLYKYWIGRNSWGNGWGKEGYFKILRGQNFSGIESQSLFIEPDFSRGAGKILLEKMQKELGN

Structure (SMILES)	% Inhibition @ 10 uM [%]
Sc1nnc(-c2ccccc2)n1/N=C/C=C/c1ccco1	2.56
CCC/N=c1/c(-c2ccc(C(C)C)cc2)c(O)c1=O	-5.96
Cc1ccc(C2CC(=O)N=C(NC(=O)c3cccnc3)N2)cc1 (centres unmarked)	3.89
CCOC(=O)c1c(S(=O)(=O)N2CCCCC2C)c(C)n(C)c1C (centres unmarked)	5.25
COc1ccc(/N=C2\SC(C(=O)Nc3ccc(Cl)cc3)CC(=O)N2C)cc1 (centres unmarked)	-3.28
CC(C)C[C@H](NC(=O)c1cccnc1)C(=O)NCC#N	10.2
COc1ccc(Cl)cc1Cc1nc(C)cc(O)n1	1.72
O=C(CCCCCN1C(=O)c2ccccc2C1=O)Nc1nc(C2CC2)cs1	4.3
COc1ccc(C(=O)Nc2ccc(C(=O)O)cc2)c(OC)c1	11.8
CC/C(=C\c1sc2ccc(OC)cc2[n+]1CC)SCC(=O)O	11.8
CCCCCCP(=O)(O)c1ccccc1	-2.51
COc1ccc(CNC(=O)c2cc3c(s2)CN(Cc2ccccc2)C3)cc1	5.81
CC1=C(C(=O)Nc2ccccc2)C(c2ccc3c(c2)OCO3)C(C(=O)Nc2ccccc2)=C(C)N1	-3.5
O=C(COCc1cc(-c2ccc3c(c2)OCO3)on1)NC1CCCc2ccccc21 (centres unmarked)	3.62
Cc1nn(-c2ccccc2)c(N)c1C(c1ccccc1)c1cccs1 (centres unmarked)	-1.7
COc1cccc(-c2cc(C(=O)NCCCN3CCOCC3)c3ccccc3n2)c1	4.76
C#CCOC(=O)c1ccccc1C(=O)N(CC)CC	-0.597
CC(=O)c1sc(N2C(=O)C(O)=C(C(=O)c3cc4ccccc4o3)C2c2ccccc2)nc1C (centres unmarked)	9.72
CNC(=O)Cn1cnc2c1c(=O)[nH]c(=O)n2C	1.76
NC(=O)c1cc(NC(=O)c2cccc(F)c2)cc(C(N)=O)c1	-6.36
CC(=O)Nc1sc2c(c1C(=O)Nc1ccccc1)CCC(C)C2 (centres unmarked)	3
O=C(CNS(=O)(=O)c1cc(Cl)ccc1Cl)N1CCN(c2ccc(F)cc2)CC1	4.05
CCCN(Cc1ccc2c(c1)c1ccccc1n2CC)CC1CC1	-4.04
Cc1cc(C)c(S(=O)(=O)N=C2C=CC(=O)C=C2)c(C)c1	-0.178
COc1cc(/C=c2\sc3ncnn3c2=O)cc(OC)c1OC	-1.52
Cc1ccc(Cl)cc1NS(=O)(=O)c1ccc([N+](=O)[O-])cc1	1.04

Structure (SMILES)	% Inhibition @ 10 uM [%]
CCC(C)N(CCNC(=O)c1c2c(nc3ccccc13)C(=O)N(C1CCCCC1)C2)Cc1ccco1 (centres unmarked)	2.48
Cc1ccc(NC(=O)C2CC(Cl)=CCC2C(=O)O)c(Br)c1 (centres unmarked)	0.726
COc1ccc(-c2nonc2NC(=O)COc2c(F)c(F)c(F)c(F)c2F)cc1OC	2.29
O=C1OCc2ccccc2N1Cc1ccccc1	-4.52
Oc1nc(-c2ccccn2)cc2ccccc12	-7.06
COc1ccc(NC(=O)CN(c2cccc(Br)c2)S(C)(=O)=O)cc1	4.25
CCn1c(/C=C/c2ccccc2)nc2ccccc2c1=O	17.5
CCCCn1c2ccccc2c2cc(C(C)=O)ccc21	-4.84
O=C(CCC(=O)c1ccc(F)cc1)Nc1cccnc1	-0.551
C=COCCn1c2ccccc2c2cc(Br)ccc21	1.9
CN(C1CCCCC1)S(=O)(=O)c1ccc(CN2C(=O)c3cccnc3C2=O)cc1	4.48
Cc1ccnc(NC(=O)CCNS(=O)(=O)c2cc(Br)cnc2N)c1	-10.1
CCOc1cc(/C=C2/SC(NC(C)=O)=NC2=O)ccc1OCC(=O)O	4.85
CC(C)=CCC[C@H](C)CCN1CCN(c2cccc(Cl)c2)CC1	-5.94
Cc1ccc(S(=O)(=O)Nc2ccc(-c3cn4ccsc4n3)cc2)c(C)c1	-0.366
O=C(CCN1C(=O)c2ccccc2C1=O)NCC1CCCO1 (centres unmarked)	-0.349
COCc1[nH]nc2c1C(c1cccc(OC)c1)C(C#N)=C(N)O2 (centres unmarked)	6.24
CCOc1cc(C2CC(=O)NC3=C2C(=O)CC(c2cccs2)C3)ccc1O (centres unmarked)	3.6
Cc1cccc(NC(=O)COc2cc(C)c(Cl)c(C)c2)n1	5.99
COCCNC(=O)CC(c1cc(OC)c(OC)c(OC)c1)N1Cc2ccccc2C1=O (centres unmarked)	-3.47
Cc1cc2nc(NC3=NCN(Cc4cccnc4)CN3)nc(C)c2cc1C	-3.53
Fc1ccc(CNc2nc3c(-c4ccccc4)nnn3c3ccccc23)cc1	-2.92
CCOC(=O)N1CCC(NCc2ccc(Cl)cc2)CC1	1.88
O=C(Nc1c(C(=O)C2CC2)oc2ccccc12)c1ccc(Cl)cc1	2.15
CCOC(=O)N1CCC(NC(=O)c2cc3ccc4cccnc4c3[nH]2)CC1	-2.9
COc1ccccc1CNC(=O)Cn1ncc2ccsc2c1=O	-4.69

Structure (SMILES)	% Inhibition @ 10 uM [%]
O=C1NC2(CCCCC2)N(C(=O)c2cccs2)C2=C1CCCC2	0.366
O=c1c2c(nc(SCCc3ccccc3)n1-c1ccccc1)-c1ccccc1CC21CCCC1	1.27
O=C(C1=C(O)C(=O)N(c2nccs2)C1c1ccccc1)c1ccc(Cl)cc1 (centres unmarked)	-6.67
CCCc1ccccc1OCCNS(=O)(=O)c1cc(OC)c(Cl)cc1OC	2.72
Cc1c(C(=O)NCCCN2CCN(C)CC2)sc2ncn(CC(=O)N3CCCCC3C)c(=O)c12 (centres unmarked)	-8.7
CCC(=O)NC(C)c1nc2ccccc2n1Cc1ccccc1F (centres unmarked)	1.5
Clc1ccccc1-c1nnc2sc(CCc3ccccc3)nn12	0.0539
O=C(C1CCN(S(=O)(=O)c2ccc(F)cc2)CC1)N(Cc1ccccc1)Cc1ccccc1	0.583
CCOc1cccc2c1Oc1nc(-c3cccc(O)c3)nc(O)c1C2	3.92
Cc1ccc(NC(=O)c2cc3ccccc3cc2O)c([N+](=O)[O-])c1	-2
COc1ccc(-c2nnn3c2nc(NC(C)c2ccccc2)c2ccccc23)cc1 (centres unmarked)	-1.21
O=C(NCCc1ccccc1)c1ccc(CS(=O)c2ccccc2Cl)o1 (centres unmarked)	1.5
CC1(C)CC(N(Cc2ccccc2)C(=O)Cc2ccccc2)CCO1 (centres unmarked)	1.91
COCCCNC(=O)/C(C#N)=C/c1c(Oc2cc(C)ccc2C(C)C)nc2ccccn2c1=O	-5.1
Cc1ccc(CN(C)CCc2ccccn2)o1	-1.21
COc1ccc(C(=O)NCCC2=CCCCC2)cc1Br	-5.56
Clc1ccc(-c2noc3ncnc(N4CCC5(CC4)OCCO5)c23)cc1	4.28
O=C(O)CCc1nnc2n(Cc3ccccc3Cl)c(=O)c3ccccc3n12	-2.41
CCOC(=O)N1CCC(NC(=O)c2ccc(CSc3nc4ccncc4[nH]3)cc2)CC1	-3.35
CCOc1ccc(-n2cc(-c3ccccc3)c3c(NCc4cccnc4)ncnc32)cc1	-3.56
Cc1ccc(C)n1CCCCNC(=O)CC#N	-3.04
O=S(=O)(Nc1cc(Cl)ccc1Cl)c1ccc2ccccc2c1	2.13
CCOc1ccccc1CNC(=O)c1cc2c(=O)oc3ccccc3c2s1	-0.631
Cc1cccc(NS(=O)(=O)c2cc(-c3onc(C)c3C)ccc2C)n1	3.2
Cc1ccc(S(=O)(=O)NC(Cc2ccccc2)C(=O)O)cc1C (centres unmarked)	-5.08
CCC(C)NC(=O)CN(Cc1ccc(Br)cc1)S(=O)(=O)c1ccc(Cl)cc1 (centres unmarked)	5.24

Structure (SMILES)	% Inhibition @ 10 uM [%]
CN(C)CC(C)(C)CNC1CCCCCC1	-1.21
Cc1nc2sccn2c(=O)c1S(=O)(=O)NC(C)c1ccccc1 (centres unmarked)	1.13
N#Cc1nc(COc2ccc(Br)cc2)oc1NCCCn1ccnc1	0.343
Cc1ccc(NS(=O)(=O)c2ccc(NC(=O)[C@@H]3CCCC[C@@H]3C(=O)O)cc2)c(C)c1	10.3
CC(C)(C)c1cc(C(=O)CCN2CCOCC2)cc(C(C)(C)C)c1O	-7.8
O=C(CSc1nc2ccccc2[nH]1)Nc1nncs1	-2.39
Cc1ccccc1-n1c(C)cc(C(=O)O)c1C	2.1
CCCC1=C(O)C2N=CC=CC2=[N+](c2ccccn2)C1=O (centres unmarked)	0.235
Cc1cc(O)c(C2=NCCSC(c3cccc([N+](=O)[O-])c3)C2)c(=O)o1 (centres unmarked)	-5.28
CCCCOc1ccc(C2C(C#N)=C(N)Oc3[nH]nc(C(C)(C)C)c32)cc1 (centres unmarked)	0.919
CCCC(C)n1nc(O)c2c1NC(=O)CSC2c1ccccc1 (centres unmarked)	-0.666
CCOC(=O)C(Cc1c[nH]c2ccccc12)NC(=O)c1ccccc1Cl (centres unmarked)	0.035
N#C/C(=C/c1cn(Cc2ccccc2)c2ccccc12)C(=O)NCC1CCCO1 (centres unmarked)	0.131
O=C(NCc1ccncc1)NC12CC3CC(CC(C3)C1)C2	-4.42
CCCNCc1c(C(=O)O)c(C)n(Cc2cccc(Cl)c2)c1C	-1.92
Cn1c(/C(C#N)=C(\O)c2ccc(S(=O)(=O)N3CCCCC3)cc2)nc2ccccc21	17.4
COc1cccc(C(=O)N2CCc3ccccc32)c1	-1.49
COc1cc(/C=C2\Sc3ccccc3C2=O)c(Br)cc1O	4.86
CC(C)c1ccc(NC(=O)COc2ccccc2)cc1	-0.67
Cc1cc(C)n(CCc2nc3c4ccccc4nc(NCCc4c[nH]c5ccccc45)n3n2)n1	-0.692
CC1=C(CCN(C)CCc2ccccn2)C(C)(C)CCC1	-2.02
O=C(O)COc1ccc2cc(Br)ccc2c1Br	-1.29
CCOc1ccc(N2CC(C(=O)Nc3cc(C(C)(C)C)ccc3OC)CC2=O)cc1 (centres unmarked)	-5.29

From publication PMC6919601, “Identification of Plasmodium dipeptidyl aminopeptidase allosteric inhibitors by high throughput screening” (PLoS ONE, 2019)
